# The list shows a part of the results. This is a noisy data set.
# T1: EPHB2_Pkinase__P29323_604_898
# T1 chain: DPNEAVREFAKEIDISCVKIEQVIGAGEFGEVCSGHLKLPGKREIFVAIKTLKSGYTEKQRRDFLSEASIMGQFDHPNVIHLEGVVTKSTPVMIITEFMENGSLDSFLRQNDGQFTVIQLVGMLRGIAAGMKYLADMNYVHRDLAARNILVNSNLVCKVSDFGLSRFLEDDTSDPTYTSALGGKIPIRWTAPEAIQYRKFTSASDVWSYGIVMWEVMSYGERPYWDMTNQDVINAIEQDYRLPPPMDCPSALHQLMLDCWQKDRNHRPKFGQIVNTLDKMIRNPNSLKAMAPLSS
# T2: PEX14_Pex14__O75381_16_84
# T2 chain: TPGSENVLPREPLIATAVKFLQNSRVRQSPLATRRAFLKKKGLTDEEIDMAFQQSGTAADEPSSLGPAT
# T3: EIF_DEAD__P60842_29_237
# T3 chain: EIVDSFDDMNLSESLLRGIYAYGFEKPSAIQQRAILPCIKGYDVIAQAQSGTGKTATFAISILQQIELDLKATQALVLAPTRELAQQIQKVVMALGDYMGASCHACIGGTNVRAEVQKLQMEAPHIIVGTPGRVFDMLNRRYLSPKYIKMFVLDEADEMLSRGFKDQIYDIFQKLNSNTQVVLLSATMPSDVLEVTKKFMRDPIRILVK
# T4: MSN_FERM_1_P26038_1_322
# T4 chain: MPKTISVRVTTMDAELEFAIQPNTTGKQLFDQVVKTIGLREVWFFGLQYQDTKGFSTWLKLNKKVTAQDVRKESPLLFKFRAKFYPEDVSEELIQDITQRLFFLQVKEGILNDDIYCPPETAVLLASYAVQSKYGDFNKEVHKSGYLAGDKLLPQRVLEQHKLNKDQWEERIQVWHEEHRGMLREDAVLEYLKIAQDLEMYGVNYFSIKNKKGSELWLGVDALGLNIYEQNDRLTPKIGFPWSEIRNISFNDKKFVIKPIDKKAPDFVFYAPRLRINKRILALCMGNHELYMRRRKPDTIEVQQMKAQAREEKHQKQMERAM
# T5: EPHA3_Pkinase__P29320_606_947
# T5 chain: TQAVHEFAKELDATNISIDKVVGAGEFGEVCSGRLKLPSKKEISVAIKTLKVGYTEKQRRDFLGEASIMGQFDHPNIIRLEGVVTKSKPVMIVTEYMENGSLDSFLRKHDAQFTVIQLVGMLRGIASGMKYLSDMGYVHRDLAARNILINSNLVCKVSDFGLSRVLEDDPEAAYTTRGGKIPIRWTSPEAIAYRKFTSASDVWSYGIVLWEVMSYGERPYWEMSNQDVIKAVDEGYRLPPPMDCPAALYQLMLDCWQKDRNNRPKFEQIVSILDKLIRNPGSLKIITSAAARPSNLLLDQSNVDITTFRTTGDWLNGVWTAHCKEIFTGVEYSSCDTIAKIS
# T6: G3BP2_NTF2_1_Q9UN86_1_139
# T6 chain: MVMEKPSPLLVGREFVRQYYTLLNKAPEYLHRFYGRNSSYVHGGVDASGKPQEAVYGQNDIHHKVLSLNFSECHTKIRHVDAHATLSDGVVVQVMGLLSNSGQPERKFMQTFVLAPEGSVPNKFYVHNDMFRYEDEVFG
# T7: SPOP_MATH__O43791_19_176
# T7 chain: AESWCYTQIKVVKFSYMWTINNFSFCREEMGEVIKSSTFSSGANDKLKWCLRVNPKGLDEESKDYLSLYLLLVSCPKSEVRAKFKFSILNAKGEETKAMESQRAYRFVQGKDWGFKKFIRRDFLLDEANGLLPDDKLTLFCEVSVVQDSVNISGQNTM
# How the values were obtained:
# Experiment in all cases: mutation enrichment score (mutant vs wild-type peptide binding to bait); baits are purified protein domains named by gene / domain / UniProt id / residues; peptides come from disordered regions of human proteins; higher = mutation enhances binding relative to wild type
# [1] = target: T1, EPHB2_Pkinase__P29323_604_898; conditions: paper call: no_effect, wild-type window: …
# [2] = target: PDCD6IP_Bro__Q8WUM4_1_359; conditions: number of wild-type / mutant comparisons summed (bounds the score): 5; paper call: no_effect; wild-type window: …
# [3] = target: KPNA4_Arm__O00629_68_487; conditions: number of wild-type / mutant comparisons summed (bounds the score): 9; paper call: no_effect; wild-type window: …
# Sequence of KPNA4_Arm__O00629_68_487 (chain, as listed by the source): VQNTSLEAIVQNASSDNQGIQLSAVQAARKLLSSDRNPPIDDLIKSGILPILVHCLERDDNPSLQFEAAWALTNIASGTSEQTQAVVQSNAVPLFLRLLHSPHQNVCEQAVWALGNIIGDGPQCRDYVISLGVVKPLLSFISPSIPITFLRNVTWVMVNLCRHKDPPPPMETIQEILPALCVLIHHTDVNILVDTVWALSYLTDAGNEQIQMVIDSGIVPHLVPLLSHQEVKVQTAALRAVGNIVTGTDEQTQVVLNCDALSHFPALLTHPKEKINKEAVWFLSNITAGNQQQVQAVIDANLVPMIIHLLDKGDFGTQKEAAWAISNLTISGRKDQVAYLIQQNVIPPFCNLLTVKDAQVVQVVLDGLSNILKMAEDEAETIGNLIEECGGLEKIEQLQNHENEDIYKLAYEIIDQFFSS
# [4] = target: RUNX1T1-MYND___Q06455_510_559; conditions: number of wild-type / mutant comparisons summed (bounds the score): 12; paper call: no_effect; wild-type window: …
# [5] = target: T2, PEX14_Pex14__O75381_16_84; conditions: wild-type window: …
# [6] = target: T3, EIF_DEAD__P60842_29_237; conditions: paper call: no_effect, wild-type window: …
# [7] = target: Intersectin-1_SH3_2_Q15811_913_971; conditions: number of wild-type / mutant comparisons summed (bounds the score): 6; paper call: no_effect; wild-type window: …
# [8] = target: EZR_FERM_1_P15311_2_295; conditions: number of wild-type / mutant comparisons summed (bounds the score): 10; paper call: no_effect; wild-type window: …
# Sequence of EZR_FERM_1_P15311_2_295 (chain, as listed by the source): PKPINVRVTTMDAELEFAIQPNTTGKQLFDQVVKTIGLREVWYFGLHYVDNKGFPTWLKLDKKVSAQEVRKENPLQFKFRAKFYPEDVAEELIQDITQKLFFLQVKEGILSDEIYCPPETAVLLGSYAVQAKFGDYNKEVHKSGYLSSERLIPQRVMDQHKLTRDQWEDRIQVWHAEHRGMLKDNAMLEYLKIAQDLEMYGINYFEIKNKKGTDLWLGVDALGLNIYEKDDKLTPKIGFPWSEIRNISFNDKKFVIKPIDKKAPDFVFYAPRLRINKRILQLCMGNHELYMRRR
# [9] = target: T4, MSN_FERM_1_P26038_1_322; conditions: number of wild-type / mutant comparisons summed (bounds the score): 12; paper call: no_effect; wild-type window: …
# [10] = target: PPIA_full-length__P62937_1_165, P62937; conditions: number of wild-type / mutant comparisons summed (bounds the score): 12; paper call: diminished; wild-type window: …
# Sequence of PPIA_full-length__P62937_1_165, P62937 (P62937 whole entry, looked up): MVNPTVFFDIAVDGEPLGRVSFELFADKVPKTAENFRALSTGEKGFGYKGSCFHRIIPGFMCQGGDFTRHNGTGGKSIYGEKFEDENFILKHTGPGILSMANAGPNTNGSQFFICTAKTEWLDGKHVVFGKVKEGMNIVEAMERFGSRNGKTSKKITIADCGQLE
# [11] = target: T5, EPHA3_Pkinase__P29320_606_947; conditions: number of wild-type / mutant comparisons summed (bounds the score): 6; paper call: no_effect; wild-type window: …
# [12] = target: T6, G3BP2_NTF2_1_Q9UN86_1_139; conditions: number of wild-type / mutant comparisons summed (bounds the score): 12; paper call: no_effect; wild-type window: …
# [13] = target: T7, SPOP_MATH__O43791_19_176; conditions: number of wild-type / mutant comparisons summed (bounds the score): 6; paper call: no_effect; wild-type window: …
# [14] = target: EIF4E_eIF4E__P06730_1_217, P06730; conditions: number of wild-type / mutant comparisons summed (bounds the score): 12; paper call: no_effect; wild-type window: …
# Sequence of EIF4E_eIF4E__P06730_1_217, P06730 (P06730 whole entry): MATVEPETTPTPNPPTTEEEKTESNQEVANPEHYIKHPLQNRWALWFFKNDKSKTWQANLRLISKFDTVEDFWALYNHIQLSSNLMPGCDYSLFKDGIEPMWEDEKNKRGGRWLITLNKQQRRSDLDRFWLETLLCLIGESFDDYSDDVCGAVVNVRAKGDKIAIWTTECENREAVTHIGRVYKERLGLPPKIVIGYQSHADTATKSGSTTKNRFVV
# [15] = number of wild-type / mutant comparisons summed (bounds the score): 6
# [16] = number of wild-type / mutant comparisons summed (bounds the score): 12
binder,measurement,setting,value
FHVTIGHTALSLYTDCPFPKGMHWALIAYAISFIFLFLNFY [W246G W246G],mutation enrichment score,[1]; [15],-3
ENDHFDTYADALWWGLITLTSIGYGDKYPQTWNGRLLAATF [T277S T277S],mutation enrichment score,[1]; [15],-1
TYADALWWGLITLTTIGYGDRYPQTWNGRLLAATFTLIGVS [K283R K283R],mutation enrichment score,[1]; [15],-1
same,mutation enrichment score,[2],1
LVYLAEKGENDHFDTYADALLWGLITLTTIGYGDKYPQTWN [W269L W269L],mutation enrichment score,[1]; [15],-1
same,mutation enrichment score,[3],1
MVSKLSQLQTELLAALLESGHSKEALIQALGE [L12H L12H],mutation enrichment score,[1]; [16],3
same,mutation enrichment score,[4],1
LVGTLIPPSEDKASKGFFSYWADIFVQNLVPDWRGPDGTFF [R321W R321W],mutation enrichment score,[1]; [16],2
same,mutation enrichment score,"[5]; number of wild-type / mutant comparisons summed (bounds the score): 6, paper call: no_effect",2
DVPEVDAQGEEMKEEFETYAYALWWGLITLATIGYGDKTPK [D305Y D305Y],mutation enrichment score,[6]; [15],1
same,mutation enrichment score,[7],0
KVKLEQQVDDLEGSLEQEKKARMDLERAKRKLEGDLKLTQE [V1044A V1044A],mutation enrichment score,[6]; [15],1
STQSLPTVDTSAQAAPQTYAKYAISQPLEGAGATCPTGSEP [E62K E62K],mutation enrichment score,[6]; [16],0
same,mutation enrichment score,[8],-5
same,mutation enrichment score,[9],-3
same,mutation enrichment score,[10],-7
YLAEKGENDHFDTYADALWWRLITLTTIGYGDKYPQTWNGR [G271R G271R],mutation enrichment score,[11],2
same,mutation enrichment score,[1]; [15],-1
LLASLIRGNRSNCALFSTNLYWLVSKLDRLEASSGILEVLY [D544Y D544Y],mutation enrichment score,[11],1
same,mutation enrichment score,[12],0
KSLRQRRAQASYAGPPPTVAKLVEAHTNFGFQPDTAPRSPN [E580K E580K],mutation enrichment score,[11],1.1
same,mutation enrichment score,[13],-3.7
GPGPGSPQRRAQQRAAPGEPDWMGRLWVTFSGKLRRIVDSK [G773D G773D],mutation enrichment score,[6]; [16],0.47
same,mutation enrichment score,"[5]; number of wild-type / mutant comparisons summed (bounds the score): 18, paper call: enhanced",12
SREHPSVQEKKKSTIWQFFSCLFSSSSSPPPAKRPYPSVNI [R578C R578C],mutation enrichment score,[14],3
same,mutation enrichment score,[1]; [15],2
MLKPSLPFTSLLFLQLPLLGPGLNTTILTPNGNEDT [L16P L16P],mutation enrichment score,[6]; [16],0
SAVGSSAAAPRQPGLMAQMAITAAGVAVGSAVGHTLGHAIT [T61I T61I],mutation enrichment score,[11],0
same,mutation enrichment score,[1]; [15],0.88
same,mutation enrichment score,[2],-1.2
TSGLPGDTALLLPPSPRPSPGVHLPTQPAADTYSEFHKHYA [R342G R342G],mutation enrichment score,[6]; [15],-2
FDTYADALWWGLITLTTIGYEDKYPQTWNGRLLAATFTLIG [G281E G281E],mutation enrichment score,[1]; [15],-1
FDTYADALWWGLITLTTIGYRDKYPQTWNGRLLAATFTLIG [G281R G281R],mutation enrichment score,[1]; [15],-1
FDTYADALWWGLITLTTIGYWDKYPQTWNGRLLAATFTLIG [G281W G281W],mutation enrichment score,[1]; [15],-1

# Reference: the supplement of paper PMC11369174, “Proteome-scale characterisation of motif-based interactome rewiring by disease mutations” (Molecular Systems Biology, 2024)
